# Source: the supplement of paper PMC4166925
# ± gives the standard deviation of the averaged measurements. Whole data set: some 33,000 sequences, median “E-score (dimensionless, -0.5 to 0.5)” near -0.049, cut for the highest 2% near 0.37. The list shows a part of the results.
# System: T1, PmTbr T-box DNA-binding domain (GST fusion)
# T1 sequence: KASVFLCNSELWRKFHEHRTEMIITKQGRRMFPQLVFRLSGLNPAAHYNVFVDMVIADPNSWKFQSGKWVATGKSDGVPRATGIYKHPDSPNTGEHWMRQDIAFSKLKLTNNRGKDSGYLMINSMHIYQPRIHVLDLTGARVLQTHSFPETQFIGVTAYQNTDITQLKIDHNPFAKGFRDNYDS
# Test: PBM E-score of 8-mer (E-score (dimensionless, -0.5 to 0.5)); Tbr is Tbrain of the sea star Patiria miniata (Pm) or the sea urchin Strongylocentrotus purpuratus (Sp); higher = stronger binding preference; most listed sequences are background and not binding sites
# Conditions: the construct has about 5 more residues each side
# Outline: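 Expression of GST-fused Tbr T-box DNA-binding domains, each holding the full T-box plus roughly five flanking residues, was carried out in BL21 E. coli at 20 °C, with purification by glutathione affinity chromatography. Universal Agilent arrays made double-stranded by primer extension were incubated with the protein at 200 nM in PBS (pH 7.5), then scanned and quantified. All ungapped 8-mers were scored from probe intensities, and each received an enrichment E-score from the Universal PBM Analysis Suite, averaged over duplicate arrays.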
row,Sequence,PBM E-score of 8-mer
1,ATTTTTGG,-0.0403 ± 0.032
2,ACTAGTGC,0.101 ± 0.0089
3,ACACTAAC,0.334 ± 0.025
4,CACACCCA,0.423 ± 0.012
5,CGATAGAC,-0.0834 ± 0.035
6,GTCTCCAA,-0.243 ± 0.063
7,GTACTAAA,-0.209 ± 0.05
8,CCTCCTAC,0.0114 ± 0.069
9,CCGACGTA,-0.034 ± 0.021
10,AGAGAAGG,-0.0063 ± 0.063
11,ATTGAATC,-0.0765 ± 0.04
12,ATTTCACG,0.319 ± 0.026
13,AGACTAAG,-0.287 ± 0.035
14,GAGCTTGA,-0.102 ± 0.069
15,CGGAACCC,-0.314 ± 0.0082
16,ACCTGCTA,0.3 ± 0.014
17,AGTTGAGG,-0.193 ± 0.0083
18,ACTTATCC,-0.264 ± 0.03
19,AAGGTTTC,0.0322 ± 0.0076
20,GCCTGGAC,-0.101 ± 0.011
21,AGGTCGCG,0.237 ± 0.027
22,ACCTACCA,0.228 ± 0.0028
23,CGAGAGGC,0.0743 ± 0.058
24,GCGTCTAA,0.0383 ± 0.092
25,AAATACTC,-0.0913 ± 0.13

row,Sequence,PBM E-score of 8-mer
1,ATGGCGGG,-0.0261 ± 0.0049
2,CGCTAGAA,0.16 ± 0.025
3,CGGCAGCA,-0.0457 ± 0.033
4,CGACTTCC,-0.183 ± 0.002
5,GCGCTTAA,0.086 ± 0.028
6,TCGTGGCA,0.0904 ± 0.025
7,GGAGTCAC,0.0817 ± 0.017
8,GCCTTTCA,-0.0251 ± 0.074
9,GTCCGCAA,0.0782 ± 0.0017
10,ATGGCAGG,0.0144 ± 0.013
11,AGACAAGG,-0.199 ± 0.026
12,ACTATGAA,-0.14 ± 0.051
13,ATGGGCGA,0.0516 ± 0.067
14,CGCAGCTC,0.0937 ± 0.005
15,CCTATTGC,-0.0884 ± 0.063
16,AAATACCT,-0.128 ± 0.096
17,GCATGGGA,-0.253 ± 0.057
18,AAATTCTC,0.123 ± 0.05
19,CGACCTGA,-0.0522 ± 0.11
20,GATCCCAA,-0.244 ± 0.044
21,ACACTGGA,-0.0859 ± 0.03
22,GCTGTATA,0.0268 ± 0.047
23,AACGCCGT,0.174 ± 0.0068
24,AATCAGCG,0.0461 ± 0.05
25,GACATACA,-0.0342 ± 0.031

row,Sequence,PBM E-score of 8-mer
1,ACTAACTG,0.0889 ± 0.035
2,GCCAGAGA,0.00995 ± 0.026
3,CATGAGGG,-0.236 ± 0.042
4,CATTTGTC,0.0836 ± 0.0065
5,GTAGAGGA,-0.2137 ± 0.00037
6,ACCCTCGG,-0.0772 ± 0.018
7,CATACTGA,-0.21 ± 0.1
8,CCCTTGAG,-0.118 ± 0.033
9,GCCACTGA,0.1436 ± 0.00088
10,ATAACTTC,0.0466 ± 0.081
11,GAAGGTTA,-0.109 ± 0.011
12,AAGGAGGA,-0.298 ± 0.043
13,CCATAACG,-0.0143 ± 0.027
14,GAGCCTGA,-0.0616 ± 0.083
15,GGAAAATA,-0.11 ± 0.15
16,AACGTCTA,-0.196 ± 0.0042
17,ACCGCGAT,0.267 ± 0.03
18,AGGCGATC,-0.0105 ± 0.036
19,AAGATCCC,-0.0326 ± 0.008
20,GGATGAGA,-0.203 ± 0.067
21,CGTGGTGC,0.0814 ± 0.034
22,ATTGGTGA,0.205 ± 0.005
23,ATTACACA,0.126 ± 0.063
24,GAGTTCAA,-0.117 ± 0.059
25,CCACATGC,-0.0952 ± 0.051

row,Sequence,PBM E-score of 8-mer
1,ACTTAGGG,0.0547 ± 0.0052
2,CGGTTTGC,0.07695 ± 0.00059
3,AAAGATTG,-0.0999 ± 0.023
4,GGGCGGCA,-0.0375 ± 0.038
5,CTGAATCC,-0.24 ± 0.035
6,AGCCTCAG,-0.207 ± 0.061
7,AGGAATCG,-0.196 ± 0.029
8,CCGAGCGG,-0.338 ± 0.06
9,CATGGTGC,0.166 ± 0.062
10,GTCATTTA,-0.12 ± 0.017
11,CACCGCGC,0.101 ± 0.062
12,AAGTTTAG,-0.117 ± 0.0039
13,AGGGTTTG,-0.237 ± 0.042
14,ATCACACG,0.39 ± 0.0083
15,ATTCTGAA,-0.326 ± 0.016
16,CGGTTTGA,-0.1932 ± 0.0019
17,CAGGAGCA,-0.0597 ± 0.011
18,GCGGCCGA,-0.186 ± 0.046
19,CATCGTCC,-0.2382 ± 0.00093
20,AAGACTGC,-0.312 ± 0.048
21,ACACAGCA,0.128 ± 0.013
22,TAAATAGA,-0.149 ± 0.035
23,AGCGACTG,-0.08637 ± 0.00016
24,AACAGACA,0.122 ± 0.024
25,AGATGCAA,-0.111 ± 0.021

row,Sequence,PBM E-score of 8-mer
1,AACAGCAG,-0.082 ± 0.056
2,CAATTCCG,0.0504 ± 0.045
3,GACAGACC,-0.00978 ± 0.051
4,AGATTCTC,0.0818 ± 0.056
5,ATCACGAC,0.0587 ± 0.036
6,AACAATAG,0.134 ± 0.014
7,CTGATCAG,-0.064 ± 0.014
8,CGTATCAA,-0.227 ± 0.023
9,GCACTTGA,0.206 ± 0.031
10,TGATTCCA,-0.261 ± 0.013
11,ACACCTTA,0.4762 ± 0.00075
12,ATGCGCTC,-0.196 ± 0.08
13,CACATGTC,0.198 ± 0.0032
14,ACATAAGA,-0.11 ± 0.064
15,ATTGTCGA,0.0764 ± 0.052
16,AATGCAGG,-0.116 ± 0.0066
17,ATGCGCCG,-0.0968 ± 0.08
18,AGTGCGCA,0.101 ± 0.031
19,CAGGAGCC,-0.2301 ± 0.00044
20,ACTACGAT,-0.0337 ± 0.054
21,GTGGCACA,0.2734 ± 0.0017
22,AGGTTGGC,0.195 ± 0.032
23,AGTGTACC,-0.115 ± 0.11
24,GCCGGCGC,0.0659 ± 0.035
25,CTGGTTCC,-0.0536 ± 0.033

row,Sequence,PBM E-score of 8-mer
1,CTTTTTTC,-0.0179 ± 0.069
2,CCGATGAA,-0.0706 ± 0.02
3,TAGCCCGA,-0.229 ± 0.0034
4,AGAGTCCT,-0.303 ± 0.013
5,GATCCTGC,-0.0776 ± 0.014
6,CACTTATG,0.277 ± 0.0068
7,GACCCAGA,-0.0686 ± 0.065
8,CCCGAAGC,-0.0227 ± 0.017
9,TACTGCCA,-0.0957 ± 0.0099
10,CGCGGGAG,0.0945 ± 0.013
11,TCTTCTCA,0.15 ± 0.017
12,ATTAAAAC,-0.0388 ± 0.015
13,GCGCCAAC,0.311 ± 0.00062
14,ACCAGAGT,0.0116 ± 0.026
15,ACAGTAAC,0.186 ± 0.054
16,CCCCTAGC,-0.164 ± 0.0039
17,GGCACGCA,0.0601 ± 0.003
18,CACTGCTA,0.137 ± 0.054
19,ACGCGGGG,-0.029 ± 0.024
20,AACTAGTG,0.0506 ± 0.076
21,CGTCCGAG,-0.212 ± 0.043
22,AGACCTAG,-0.307 ± 0.0034
23,CAATCCTA,-0.0617 ± 0.0016
24,AGTCGGGG,-0.135 ± 0.071
25,GGCTGACC,-0.159 ± 0.018

row,Sequence,PBM E-score of 8-mer
1,ATAGGCGA,0.081 ± 0.0078
2,CGTTAGTA,0.0504 ± 0.0066
3,GATAACCA,-0.0849 ± 0.004
4,AACAATCG,0.104 ± 0.077
5,CGGTCTAC,-0.1 ± 0.071
6,TCGGAGAA,-0.123 ± 0.034
7,CGACGAGC,-0.129 ± 0.077
8,ACTGGGGC,-0.0781 ± 0.041
9,CCTTAAGC,0.0667 ± 0.076
10,TCGAGCAA,-0.0555 ± 0.015
11,AGGACATG,-0.214 ± 0.0065
12,CGGACTTA,-0.211 ± 0.035
13,GCAGGCGA,0.15 ± 0.037
14,GACAGGTC,0.183 ± 0.051
15,CAGCGTTA,0.167 ± 0.044
16,TAAATAAA,-0.116 ± 0.1
17,ACTAAGTA,-0.253 ± 0.018
18,AGGTATGC,-0.0381 ± 0.013
19,AAGGGCGC,-0.0107 ± 0.013
20,CCGGCCAC,-0.035 ± 0.03
21,CATCTACC,-0.00721 ± 0.022
22,ATAGTGCG,0.158 ± 0.031
23,AACACGGA,-0.00512 ± 0.035
24,CAAAAATG,-0.0391 ± 0.15
25,AAAGGTTG,-0.0117 ± 0.044

row,Sequence,PBM E-score of 8-mer
1,CCTGACGC,0.205 ± 0.055
2,AGGACAGG,-0.139 ± 0.04
3,CTATTTGA,-0.308 ± 0.0073
4,AACTAGGA,-0.224 ± 0.004
5,GAAGATAC,-0.0567 ± 0.0084
6,TAATGTCA,-0.0155 ± 0.081
7,CCCACCCA,0.0945 ± 0.0051
8,AGTATTAT,-0.116 ± 0.014
9,AACTATGG,-0.182 ± 0.02
10,GCTAGGCC,-0.143 ± 0.074
11,AGAACTTC,-0.135 ± 0.029
12,ACCAGAGA,-0.0847 ± 0.0015
13,GTTAACGA,0.242 ± 0.016
14,ACTGGACG,0.0928 ± 0.045
15,CAGCTGGA,-0.221 ± 0.029
16,GGCGAATA,0.0105 ± 0.026
17,GCACTAAA,0.14 ± 0.028
18,GGAGTCAA,-0.0847 ± 0.032
19,AGATTGTC,0.216 ± 0.063
20,CTCGTTAC,-0.136 ± 0.0026
21,TATGTCGA,0.0253 ± 0.041
22,AAATACGT,0.0188 ± 0.0064
23,CTCTGCGA,-0.0978 ± 0.06
24,AACGAACG,-0.0261 ± 0.026
25,CTTGTCTA,-0.142 ± 0.021

row,Sequence,PBM E-score of 8-mer
1,AAGGCTCC,-0.227 ± 0.013
2,CCGACCCC,-0.247 ± 0.027
3,AGATCCCA,-0.104 ± 0.0058
4,AGACGCTC,-0.144 ± 0.0057
5,CTATCACC,0.431 ± 0.0063
6,CTTCTTGA,-0.0622 ± 0.074
7,CTTTACAA,-0.00427 ± 0.0057
8,CTCAAGGA,-0.141 ± 0.013
9,AAGCGCTG,0.0223 ± 0.0011
10,AAGACCTC,-0.0546 ± 0.021
11,TCAGCCGA,-0.213 ± 0.01
12,ACCCATAG,-0.0519 ± 0.053
13,CCTCGCTA,0.151 ± 0.047
14,CTGTTACA,0.197 ± 0.0076
15,GCAGGACA,-0.153 ± 0.09
16,ACCCGTTA,0.168 ± 0.013
17,AAATAAGA,-0.141 ± 0.044
18,ATATAAGA,-0.208 ± 0.029
19,CCGCTCGC,0.0846 ± 0.019
